This is one part of the list.
molecular target: T1, OsWOX13 (Oryza sativa, UniProt Q5QMM3 1-267); assay: protein-binding microarray (RPBM); PBS, 2% BSA, 51.3 ng/ul salmon testes DNA, 50 uM zinc acetate, 200 nM TF, 25 C, 1 h; high values mean tight binding; details: protein: recombinant; tags: N-terminal polyhistidine and DsRed monomer fusion (pET32a); label: CyDye5-dUTP incorporated in the synthesized complementary strand; 3' TTTTT single-stranded linker to array surface; dsDNA, one strand shown
T1 sequence: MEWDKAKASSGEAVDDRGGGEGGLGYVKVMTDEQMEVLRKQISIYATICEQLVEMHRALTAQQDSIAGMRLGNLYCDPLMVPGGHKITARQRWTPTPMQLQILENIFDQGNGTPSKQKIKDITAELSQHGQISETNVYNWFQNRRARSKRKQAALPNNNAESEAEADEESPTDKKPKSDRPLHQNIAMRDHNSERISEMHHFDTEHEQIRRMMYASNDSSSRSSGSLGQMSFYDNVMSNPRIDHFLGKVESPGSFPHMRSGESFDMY
Outline: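 The binding signal is fluorescence intensity per feature, in arbitrary units, read on an Axon 4000B scanner. Polyhistidine- and DsRed-tagged transcription factors (N-terminal fusions) from E. coli BL21-CodonPlus were purified on Ni–NTA and applied at 200 nM for 1 h at 25 °C to a double-stranded, BSA-blocked custom Agilent array in buffer with 50 µM zinc acetate.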

Sequence | binding signal
AAGATTAGAGTAACTTTCCTATTATGTATTGGATAGACTTCGGAGTCACCTAGTGCAG | 4080 fluorescence intensity (a.u.)
AAAACTATAATTGAAAAGATCAAAATCAACTCTAAGATTTCGGAGTCACCTAGTGCAG | 20800 fluorescence intensity (a.u.)
CTGATTGTAGCAGCGATGCTAACTACAAGTGTGCCACAGTCGGAGTCACCTAGTGCAG | 4730 fluorescence intensity (a.u.)
TCCTAAAATGCCAATGATTCCATTTCCAAAACCATCCAAACGGAGTCACCTAGTGCAG | 3600 fluorescence intensity (a.u.)
TGACTTATGATTTATTTTATGACATAGTGAGTATATGCCTCGGAGTCACCTAGTGCAG | 13400 fluorescence intensity (a.u.)
GGCTGATTGGGCAGATTCTTTTATTGTTTCTATTTATAAACGGAGTCACCTAGTGCAG | 26500 fluorescence intensity (a.u.)
TTGTAATAATTGATTTGGCGTGGAGATAAATTTTAGATACCGGAGTCACCTAGTGCAG | 37300 fluorescence intensity (a.u.)
GAAATTGGTACAATGTGACTGAAAAGTTATGTGTATATGACGGAGTCACCTAGTGCAG | 4280 fluorescence intensity (a.u.)
GAATAATTTATGATTATTGTTAACAGTTATAAATGAATGACGGAGTCACCTAGTGCAG | 45100 fluorescence intensity (a.u.)
TCCCATGTTATGTAATCACCAATCAGACCCACAAAAGATTCGGAGTCACCTAGTGCAG | 6320 fluorescence intensity (a.u.)
TTTGAAAATTAATTGAGCGCATGCCGGTGCCAAATAATATCGGAGTCACCTAGTGCAG | 14200 fluorescence intensity (a.u.)
ATAACTGCAAAATCACTGTTCCACACGGTAGCACAGGATACGGAGTCACCTAGTGCAG | 3800 fluorescence intensity (a.u.)
AATTGGAAGTTTGATTGAAATTGGAATGATATGACGGAAACGGAGTCACCTAGTGCAG | 25900 fluorescence intensity (a.u.)
GGCCAATCAGATTACGATGCTAACTACGGAAATGAATTGCCGGAGTCACCTAGTGCAG | 21500 fluorescence intensity (a.u.)
ACTGACATGGTAATTAACTAACTCTCTGTGAAAATTAATGCGGAGTCACCTAGTGCAG | 23700 fluorescence intensity (a.u.)
GTTAGATTGACTATAGATAAATTAGAAGCTAGTAGCGAGCCGGAGTCACCTAGTGCAG | 41600 fluorescence intensity (a.u.)
AATTAATTACTAATAATGACTTAATATTCCATCATCTCCCCGGAGTCACCTAGTGCAG | 27500 fluorescence intensity (a.u.)
ACGTAATGATTAATAATCTACGTCTCTCTATTCCGTATTTCGGAGTCACCTAGTGCAG | 33500 fluorescence intensity (a.u.)
ATAATTAATACTTAACTAATTGCGAACTAATAGTTTACATCGGAGTCACCTAGTGCAG | 35900 fluorescence intensity (a.u.)
GTCCGCTACTAGATGAAATCAATCAACACCGTCGGATCGACGGAGTCACCTAGTGCAG | 3840 fluorescence intensity (a.u.)
TTTGATTTCACACATGATGTGCAAATTATCATGTGTTTTGCGGAGTCACCTAGTGCAG | 26100 fluorescence intensity (a.u.)

Sequence | binding signal
TTCGTGCCTTTTGTTTGATAATTTCTTCATGCTATCTTTTCGGAGTCACCTAGTGCAG | 3660 fluorescence intensity (a.u.)
CGCTAAAATTGAATTTAAAGAAATTGGAACGATGTAATGGCGGAGTCACCTAGTGCAG | 24500 fluorescence intensity (a.u.)
GCCAGTTTGCTACAATTAATTGACCACATACAATTGGTGGCGGAGTCACCTAGTGCAG | 25200 fluorescence intensity (a.u.)
ACAATCATCATTCATTCATGTTACCATGTCACCAGTCTCACGGAGTCACCTAGTGCAG | 3230 fluorescence intensity (a.u.)
AAGAGACACCAATTAACCATGTATAATTCATTTAGTCTCACGGAGTCACCTAGTGCAG | 5500 fluorescence intensity (a.u.)
ATGATTTGGATGTTTGAAACTTGAGAGTGGAATGCGACCCCGGAGTCACCTAGTGCAG | 7270 fluorescence intensity (a.u.)
AACTGATGAGATGGAAGAGATGTGGGAGGATAAACTTGTACGGAGTCACCTAGTGCAG | 3700 fluorescence intensity (a.u.)
AGTTTCAGGTAATTTTCTTTGGTGACTGCCGCATCTGTTACGGAGTCACCTAGTGCAG | 4830 fluorescence intensity (a.u.)
ACAAATTTACTCAAAATAATGCGCAATAAAAGGATTATTTCGGAGTCACCTAGTGCAG | 3980 fluorescence intensity (a.u.)
GTGATAATGTGATGAAAGCACTTATCATGACAAACTTGGCCGGAGTCACCTAGTGCAG | 5950 fluorescence intensity (a.u.)
GCTGATTTTAACACATGCCTTAGCTGATTTAACAACCGCCCGGAGTCACCTAGTGCAG | 21700 fluorescence intensity (a.u.)
CTATGATTAGCCATAAGTGCTACAGTAATCCACATGTGCTCGGAGTCACCTAGTGCAG | 36200 fluorescence intensity (a.u.)
GTACTTTTCCATCACATCACTCTGTCATATACACAATTTTCGGAGTCACCTAGTGCAG | 4740 fluorescence intensity (a.u.)
TTGATTGCCTCAGGTGGTCCGGACACCGTCTCAACATCCACGGAGTCACCTAGTGCAG | 17700 fluorescence intensity (a.u.)
GATGCAAATTGCTTTAAATGGGCTCGGAAACACGATCTCGCGGAGTCACCTAGTGCAG | 14600 fluorescence intensity (a.u.)
TCCTAGCTAGGCTGATTGATCCAAGCTAGCTTCGTCGTACCGGAGTCACCTAGTGCAG | 11800 fluorescence intensity (a.u.)
TTTTGATAGCTAAAGGAGTCGATATACCCGGTTTTATAGTCGGAGTCACCTAGTGCAG | 3500 fluorescence intensity (a.u.)
ATAAAATTAGTTATTTTATTTATATCCGGAAACTCTTTCGCGGAGTCACCTAGTGCAG | 13200 fluorescence intensity (a.u.)
TATTGTCTAATTGGCATAGCTGCCAATCTGTTATTGCTCACGGAGTCACCTAGTGCAG | 19400 fluorescence intensity (a.u.)
CCTACGCCTAATTGATCCTCCATTATCGTCGTCGTCGTCGCGGAGTCACCTAGTGCAG | 35600 fluorescence intensity (a.u.)
ATCTACTATTACTAGCTGCTAATTAACAACGCACTAACTACGGAGTCACCTAGTGCAG | 4070 fluorescence intensity (a.u.)
